Over roughly 33,000 sequences, “E-score (-0.5 to 0.5)” has its median near -0.017; the highest 2% begin near 0.3. This is one part of the list.

The target of the assay is T1, Sut1 (UniProt P53032).
T1 sequence: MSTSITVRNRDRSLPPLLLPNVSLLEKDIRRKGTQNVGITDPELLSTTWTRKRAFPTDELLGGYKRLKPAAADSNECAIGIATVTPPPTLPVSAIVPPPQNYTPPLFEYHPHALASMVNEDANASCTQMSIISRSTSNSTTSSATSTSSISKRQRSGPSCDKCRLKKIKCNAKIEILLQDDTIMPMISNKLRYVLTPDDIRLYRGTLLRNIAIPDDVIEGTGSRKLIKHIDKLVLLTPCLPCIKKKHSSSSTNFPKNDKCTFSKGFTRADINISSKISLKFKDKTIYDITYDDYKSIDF
Nature of the assay: PBM E-score (8-mer binding enrichment) (E-score (-0.5 to 0.5)); higher = stronger / more preferred TF binding; most listed sequences are background and not binding sites. To be noted: protein concentration: 200 nM; construct: GST-full length. The gist of the method:
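Masliner-normalised scans of fluorescent anti-GST signal were the basis for scoring. That signal came from GST-tagged yeast transcription factors applied at about 100-200 nM to double-stranded universal all-10-mer Agilent arrays on fresh or once-stripped slides. Each ungapped eight-base word, pooled with its reverse complement, received an E-score from the Universal PBM Analysis Suite.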
With ACAATGGA, the “PBM E-score” value came out at 0.162.

As to ACGCTTCC, the “PBM E-score” value was -0.043. Next, CGCTCCGA: 0.317; CGATTAGA: 0.115; GGTACCTA: -0.043.

In the case of AACCTCGT, the “PBM E-score” value was -0.0398.

With ATCTTAGG, the “PBM E-score” value is -0.239.

Consider AGACTAGG, for which the “PBM E-score” value is -0.217.

For the sequence GTGGTGGA, the “PBM E-score” value was -0.0882. In the case of CCCACAGA, the “PBM E-score” value is -0.345. As to CGGATAGA, the “PBM E-score” value worked out at 0.249. The result for ATCAGATA reads 0.126.

For CAGAGACG, the “PBM E-score” value is -0.0321. As to AGTGAGAG, the “PBM E-score” value is -0.04. On to GCCCAGCA, for which the “PBM E-score” value was -0.239. ACCGCGGA: the “PBM E-score” value was determined as 0.253. Consider ACTACCAA, for which the “PBM E-score” value was 0.0705. Regarding AGATAACC, the “PBM E-score” value came to 0.0745. With AGGAAGAA, the “PBM E-score” value was found to be 0.0511. Consider AGCTTTAC, for which the “PBM E-score” value was 0.101.

On to CGTTGACA, for which the “PBM E-score” value was -0.1.

Turning to ACGGGGAC, the “PBM E-score” value is -0.164. GAAAGAAC: the “PBM E-score” value is 0.209.

Turning to ATATAGCC, the “PBM E-score” value was -0.0379. On to CGGGTAGC, for which the “PBM E-score” value is -0.177. GCCAGAAC: the “PBM E-score” value is -0.147. Consider CTTGGCAC, for which the “PBM E-score” value was -0.046. For ACGTTTGA, the “PBM E-score” value is 0.132. As to CTTGGCCA, the “PBM E-score” value is -0.185. Regarding GCCTGTAA, the “PBM E-score” value is -0.0718. With ATATCTAC, the “PBM E-score” value came out at 0.173. Take CGGTTGTC: the “PBM E-score” value was found to be 0.098. The result for GCGACTAA reads -0.0293; that for ATCTTCCA, 0.0315; that for AGTTATAG, 0.155. The result for ATTACCTA reads 0.104; that for AGCTCGAC, 0.0188. The result for CCCAGGCC reads -0.244. As to AAAGTGGC, the “PBM E-score” value was determined as 0.0209. For the sequence GATGGGTA, the “PBM E-score” value amounted to 0.0208. Turning to AGTGTCCC, the “PBM E-score” value was -0.086.

AATAATCG: the “PBM E-score” value stood at 0.0995.

Regarding ATCAGGTC, the “PBM E-score” value was 0.0613. The result for GCTCATAA reads -0.0972; that for TATAGCGA, -0.084.

As to GGGCCATA, the “PBM E-score” value came to 0.0165. Regarding CTTCGCAA, the “PBM E-score” value is -0.0605.

In the case of CACCAGCC, the “PBM E-score” value is -0.162. On to CTTTGACA, for which the “PBM E-score” value was -0.00233. With ACGGATAC, the “PBM E-score” value is 0.212. Take ACCGGTAG: the “PBM E-score” value was -0.0124. Consider TCTCTTAA, for which the “PBM E-score” value came out at 0.181. On to AAACATGA, for which the “PBM E-score” value stood at 0.0715. For the sequence GGCCTGGA, the “PBM E-score” value is -0.251.

With CACAAGTC, the “PBM E-score” value was -0.0924. In the case of CCGTCCCA, the “PBM E-score” value was -0.0896. Next, ATGCTCGA: -0.0121. On to ATGATAAT, for which the “PBM E-score” value is 0.273. The result for AGTGTGGC reads 0.0458; that for ATGTGGCC, -0.301; that for CATTCCAG, -0.0621. For GGAACCCA, the “PBM E-score” value is -0.318. Turning to CATTATGG, the “PBM E-score” value came out at 0.0378. Next, CGCATGGA: -0.162. Next, CCTTCGCG: -0.0557; ATCTTGTC: -0.0588.

Regarding CATTGTTA, the “PBM E-score” value stood at 0.101. Take CTCTCTGA: the “PBM E-score” value was -0.212. For the sequence CTAACCGA, the “PBM E-score” value came out at 0.0355. CTGGGCGC: the “PBM E-score” value is -0.22. Next, AGGATTGA: 0.226.

Regarding AGAACCAA, the “PBM E-score” value came to 0.0688. With ACCCAATC, the “PBM E-score” value stood at 0.0165. For the sequence GACTGGCA, the “PBM E-score” value was -0.185. Consider CAATTGGG, for which the “PBM E-score” value is -0.152. Next, AGCAATCG: -0.0346; AACGCCAA: 0.00932; GAGTGATA: 0.13. The result for CCCGCTCA reads -0.307. For ATGGCCGG, the “PBM E-score” value is -0.0767. For AGAAGGAG, the “PBM E-score” value is -0.24. The result for TGCTCTAA reads -0.027; that for GATATATA, 0.247. Next, CGCTATGC: -0.224; AGGCGCAG: -0.269; AGGGAAAT: -0.0717.

The record behind these values is the supplement of paper PMC3334620.
